The whole screen tested about 52,000 compounds, of which about 4,300 (8.3%) were called active. No stated cut-off is given here; in the data, active means survival mostly below about 52% (no sharp cut-off); inactive means mostly above about 56%. The list shows a part of the results.
The molecules below were run on DeltatarO mutant (assay: growth inhibition of S. aureus wild type versus tarO mutant, primary screen, teichoic acid synthesis inhibitors, RN4220, OD600 (AID 463173)). Settings: OD600, 18 h, active compounds read low, screened at 18.75 µg/mL (by protocol).

Row | SMILES | survival
1 | COc1ccc(N2CCN(C(=O)c3cnn(-c4ccc(F)cc4)c3-n3cccc3)CC2)cc1 | inactive: 79%
2 | COC(=O)COc1ccc2oc(-c3ccc(OC)cc3)cc(=O)c2c1 | active: 36%
3 | CCC1CCCCN1CCCNC(=O)CN1C(=O)c2cccnc2Oc2ccc(C)cc21 (stereo not drawn) | inactive: 78%
4 | O=C(Nc1ccc(Br)cc1F)C1CCN(c2nc3ccccc3[nH]2)CC1 | inactive: 102%
5 | CCOC(=O)N1CCN(C(=O)c2c(C)nn(-c3cccc(C)c3)c2-n2cccc2)CC1 | active: 20%
6 | COc1ccccc1CNS(=O)(=O)c1ccc2c(c1)CC(=O)N2C | inactive: 105%
7 | COC(=O)c1sc2ncccc2c1-n1c(C)ccc1C | inactive: 91%
8 | Cc1cc(Br)c2c3c(c(N)c(=O)[nH]c13)-c1ccccc1C2=O | inactive: 78%
9 | CCn1c(SCC(=O)NC(C)(C)C)nnc1-c1cccc(C)c1 | inactive: 66%
10 | Cc1ccc(C)c(N2CCN(C(=O)CCS(=O)(=O)c3cc4c(cc3Cl)NC(=O)CO4)CC2)c1 | inactive: 81%
11 | O=C(NCc1ccc2c(c1)CCN2C(=O)c1ccccc1)c1ccccc1 | inactive: 79%
12 | Cc1ccc2oc3c(c(=O)c2c1)C(c1ccccc1F)N(CCCN(C)C)C3=O (stereo not drawn) | inactive: 73%
13 | CCOc1ccccc1NC(=O)C(CC)Sc1nc2ncccc2[nH]1 (stereo not drawn) | inactive: 67%
14 | CCCSc1nnc2c(n1)OC(c1ccc(Br)s1)Nc1ccccc1-2 (stereo not drawn) | inactive: 53%
15 | COc1ccc(-n2ncc3c2ncn2nc(COc4ccc(Cl)cc4)nc32)cc1 | inactive: 113%
16 | COc1ccc(CNC(=O)C2=C(C)C(=O)OC23CCCCC3)cc1 | inactive: 82%
17 | Cc1oc2c(cc(NS(=O)(=O)c3ccc(C(C)C)cc3)c3ccccc32)c1C(=O)O | active: 42%
18 | CC(=O)Nc1ccc(S(=O)(=O)N2CCC(c3nnc(-c4ccc(C)cc4)o3)CC2)cc1 | inactive: 67%
19 | CC(C)C(=O)N1c2nc(-c3ccco3)nn2C2(CCCCC2)[C@@H]2CCCC[C@@H]21 | inactive: 64%
20 | CCOC(=O)c1ccc2[nH]c3c(c2c1)CCCCC3=O | inactive: 93%

Row | SMILES | survival
21 | CCN(CC)C(=O)c1sc2c(c1C)c(=O)n(-c1ccc(Cl)c(Cl)c1)c(=O)n2Cc1cc(=O)n2ccccc2n1 | inactive: 112%
22 | COc1cccc(CNC(=O)Cn2c(=O)n3nc(-c4cccc(F)c4)nc3c3ccccc32)c1 | inactive: 77%
23 | COc1ccc(NC(=O)CCn2c(=O)c3cccn3c3cccnc32)cc1Cl | inactive: 85%
24 | O=C(Cn1c(=O)n(CCCS(=O)(=O)C2CCCCC2)c(=O)c2ccccc21)Nc1ccccc1C(F)(F)F | inactive: 91%
25 | Cc1ccc(S(=O)(=O)c2[nH]c(-c3ccccc3)nc2SCC(N)=O)cc1 | inactive: 78%
26 | Fc1ccc(-c2ccc(CNCCSc3nnnn3-c3ccccc3)o2)cc1 | active: 28%
27 | O=S(=O)(Nc1nc2ccccc2nc1Nc1ccccc1Br)c1ccccc1 | inactive: 112%
28 | O=C(CSc1nc2c([nH]c3ccccc32)c(=O)n1-c1cccc(Cl)c1)NCC1CCCO1 (stereo not drawn) | inactive: 135%
29 | COc1ccc(CNS(=O)(=O)c2cc3c4c(c2)CCN4C(=O)CC3)cc1 | inactive: 118%
30 | O=C(O)c1c(Cl)c(Cl)c(Cl)c(Cl)c1C(=O)N1CCCC1 | inactive: 94%
31 | CCOc1ccc(-c2cn(-c3ccc(C)cc3)c(SCC(=O)Nc3ccc(C)cc3)n2)cc1 | inactive: 83%
32 | COc1cccc(CNC(=O)C(C)n2ncn3cccc3c2=O)c1OC (stereo not drawn) | inactive: 71%
33 | O=C(Cn1c2ncccc2c(=O)n1-c1ccccc1)NCc1ccccc1Cl | inactive: 68%
34 | CC1CCc2c(sc(NC(=O)c3cc(-c4cccc(Cl)c4)on3)c2C(N)=O)C1 (stereo not drawn) | inactive: 67%
35 | Cc1ccc(NC(=O)Cc2coc3ccc(C(C)C)cc23)c(C)c1 | inactive: 88%
36 | COc1ccc(CCNC(=O)CSc2cn(CCNC(=O)c3cccc(C(F)(F)F)c3)c3ccccc23)cc1OC | inactive: 59%
37 | Cc1ccc(-n2ncc3c(N4CCC(C(N)=O)CC4)ncnc32)cc1 | inactive: 60%
38 | O=C(Cn1ncc2ccsc2c1=O)N1CCN(c2ccc(F)cc2)CC1 | inactive: 87%
39 | CCC1CN(C(=O)Nc2cccc3c2CCCC3)c2cc(Cl)ccc2O1 (stereo not drawn) | active: 44%
40 | Cc1ccc(S(=O)(=O)N2CCc3cc(C(=O)Nc4ccc(C(F)(F)F)cc4)ccc32)cc1 | inactive: 63%

Row | SMILES | survival
41 | O=C(Nc1ccccc1)N1CCCCC1 | inactive: 68%
42 | Cc1cc(C(F)F)n2nc(C(=O)Nc3ccc(C(C)C)cc3)nc2n1 | inactive: 67%
43 | Cc1oc(-c2ccccc2Cl)nc1CS(=O)CC(=O)NCc1ccc(Cl)cc1 (stereo not drawn) | inactive: 56%
44 | O=S(=O)(NC1CCc2ccccc21)c1ccc(S(=O)(=O)N2CCCC2)cc1 (stereo not drawn) | inactive: 82%
45 | O=c1ccc2cc(S(=O)(=O)NCc3ccc(Br)cc3)ccc2[nH]1 | inactive: 102%
46 | O=C(NCC1CCCCC1)C1CCCN(c2ncccn2)C1 (stereo not drawn) | inactive: 102%
47 | Cc1ccc(NC(=O)CSc2nccn2Cc2ccco2)cc1Cl | inactive: 87%
48 | COc1cccc(NC(=O)CSCc2cc(=O)c3ccc(C)c(C)c3[nH]2)c1 | inactive: 74%
49 | CCC(=O)N1CCc2cc(S(=O)(=O)NC(CC(C)C)C(=O)NCCc3cccc(C)c3)ccc21 (stereo not drawn) | inactive: 71%
50 | CCOc1nc(NC)nc(N(C#N)CN2C(=O)c3ccccc3C2=O)n1 | inactive: 83%
51 | S=c1sc2c(s1)SC1C(CC3C4C=CC(C4)C31)S2 (stereo not drawn) | inactive: 97%
52 | CCCn1c2ccccc2c2cnn(CC(=O)N3CCN(c4ccccc4F)CC3)c(=O)c21 | active: -4%
53 | CCOc1ccc(CCNS(=O)(=O)c2c(C)nc3scc(C)n3c2=O)cc1OCC | inactive: 83%
54 | CCOc1ccc(CNC(=O)c2ccc3nc(CC)c(CC)nc3c2)cc1 | inactive: 120%
55 | CC(C)Oc1cccc(C(=O)Nc2ccc3oc(-c4cccc(Cl)c4)nc3c2)c1 | active: 28%
56 | COc1cccc(N2CCN(C(=O)CCCn3c(=O)[nH]c4ccc(Br)cc4c3=O)CC2)c1 | inactive: 53%
57 | Cc1ccc(Nc2c(-c3ccc(Cl)cc3)nc3sccn23)c(C)c1 | inactive: 47%
58 | Cc1ccc(C)c(NC(=O)N2CCC(CN3CCOCC3)CC2)c1 | inactive: 102%

Reference: PubChem BioAssay AID463173 (ICCB-Longwood Screening Facility, Harvard Medical School, 2010)
